# Assay results reported in the supplement of paper PMC8728848.
# This is one part of the list.
# How the values were obtained:
# Assay in all cases: glycan array binding signal (z-score within array); higher = stronger binding
# Settings in all cases: glycan notation: IUPAC condensed, linker removed
# [1] = biological target: Gal(b1-4)GlcNAc(b1-3)Gal(b1-4)GlcNAc(b1-2)Man(a1-3)[Gal(b1-4)GlcNAc(b1-3)Gal(b1-4)GlcNAc(b1-2)Man(a1-6)]Man(b1-4)GlcNAc(b1-4)[Fuc(a1-6)]GlcNAc
# How it was run: (§1)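 From the Consortium for Functional Glycomics database, 3228 arrays were curated, keeping only those whose protein sequence was available. Binding is given as a within-array Z-score averaged across arrays sharing a protein sequence and across linkers. Negative Z-scores can be read as non-binding.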
# [2] = biological target: Gal(b1-4)GlcNAc(b1-3)Gal(b1-4)GlcNAc(b1-2)[Gal(b1-4)GlcNAc(b1-3)Gal(b1-4)GlcNAc(b1-6)]Man(a1-6)[Gal(b1-4)GlcNAc(b1-3)Gal(b1-4)GlcNAc(b1-2)Man(a1-3)]Man(b1-4)GlcNAc(b1-4)GlcNAc
# How it was run: as §1
# [3] = biological target: Gal(b1-4)GlcNAc(b1-3)Gal(b1-4)GlcNAc(b1-2)[Gal(b1-4)GlcNAc(b1-3)Gal(b1-4)GlcNAc(b1-6)]Man(a1-6)[Gal(b1-4)GlcNAc(b1-3)Gal(b1-4)GlcNAc(b1-2)Man(a1-3)]Man(b1-4)GlcNAc(b1-4)[Fuc(a1-6)]GlcNAc
# How it was run: as §1
# [4] = biological target: Gal(b1-4)GlcNAc(b1-3)Gal(b1-4)GlcNAc(b1-3)Gal(b1-4)GlcNAc
# How it was run: as §1
# [5] = biological target: Gal(b1-4)GlcNAc(b1-3)Gal(b1-4)GlcNAc(b1-3)Gal(b1-4)GlcNAc(b1-2)Man(a1-3)[Gal(b1-4)GlcNAc(b1-3)Gal(b1-4)GlcNAc(b1-3)Gal(b1-4)GlcNAc(b1-2)Man(a1-6)]Man(b1-4)GlcNAc(b1-4)GlcNAc
# How it was run: as §1
# [6] = biological target: Gal(b1-4)GlcNAc(b1-3)Gal(b1-4)GlcNAc(b1-3)Gal(b1-4)GlcNAc(b1-2)Man(a1-3)[Gal(b1-4)GlcNAc(b1-3)Gal(b1-4)GlcNAc(b1-3)Gal(b1-4)GlcNAc(b1-2)Man(a1-6)]Man(b1-4)GlcNAc(b1-4)[Fuc(a1-6)]GlcNAc
# How it was run: as §1
# [7] = biological target: Gal(b1-4)GlcNAc(b1-3)Gal(b1-4)GlcNAc(b1-3)Gal(b1-4)GlcNAc(b1-2)[Gal(b1-4)GlcNAc(b1-3)Gal(b1-4)GlcNAc(b1-3)Gal(b1-4)GlcNAc(b1-6)]Man(a1-6)[Gal(b1-4)GlcNAc(b1-3)Gal(b1-4)GlcNAc(b1-3)Gal(b1-4)GlcNAc(b1-2)Man(a1-3)]Man(b1-4)GlcNAc(b1-4)[Fuc(a1-6)]GlcNAc
# How it was run: as §1
# [8] = biological target: Gal(b1-4)GlcNAc(b1-3)Gal(b1-4)GlcNAc(b1-3)Gal(b1-4)GlcNAc(b1-3)Gal(b1-4)GlcNAc(b1-2)Man(a1-3)[Gal(b1-4)GlcNAc(b1-3)Gal(b1-4)GlcNAc(b1-3)Gal(b1-4)GlcNAc(b1-3)Gal(b1-4)GlcNAc(b1-2)Man(a1-6)]Man(b1-4)GlcNAc(b1-4)GlcNAc
# How it was run: as §1
# [9] = biological target: Gal(b1-4)GlcNAc(b1-3)Gal(b1-4)GlcNAc(b1-3)Gal(b1-4)GlcNAc(b1-3)Gal(b1-4)GlcNAc(b1-2)Man(a1-3)[Gal(b1-4)GlcNAc(b1-3)Gal(b1-4)GlcNAc(b1-3)Gal(b1-4)GlcNAc(b1-3)Gal(b1-4)GlcNAc(b1-2)Man(a1-6)]Man(b1-4)GlcNAc(b1-4)[Fuc(a1-6)]GlcNAc
# How it was run: as §1
# [10] = biological target: Gal(b1-4)GlcNAc(b1-3)Gal(b1-4)GlcNAc(b1-3)Gal(b1-4)GlcNAc(b1-3)Gal(b1-4)GlcNAc(b1-2)[Gal(b1-4)GlcNAc(b1-3)Gal(b1-4)GlcNAc(b1-3)Gal(b1-4)GlcNAc(b1-3)Gal(b1-4)GlcNAc(b1-6)]Man(a1-6)[Gal(b1-4)GlcNAc(b1-3)Gal(b1-4)GlcNAc(b1-3)Gal(b1-4)GlcNAc(b1-3)Gal(b1-4)GlcNAc(b1-2)Man(a1-3)]Man(b1-4)GlcNAc(b1-4)[Fuc(a1-6)]GlcNAc
# How it was run: as §1
# [11] = biological target: Gal(b1-4)GlcNAc(b1-3)Gal(b1-4)GlcNAc(b1-3)Gal(b1-4)GlcNAc(b1-3)Gal(b1-4)GlcNAc(b1-3)Gal(b1-4)GlcNAc(b1-2)Man(a1-3)[Gal(b1-4)GlcNAc(b1-3)Gal(b1-4)GlcNAc(b1-3)Gal(b1-4)GlcNAc(b1-3)Gal(b1-4)GlcNAc(b1-3)Gal(b1-4)GlcNAc(b1-2)Man(a1-6)]Man(b1-4)GlcNAc(b1-4)GlcNAc
# How it was run: as §1
# [12] = biological target: Gal(b1-4)GlcNAc(b1-3)Gal(b1-4)GlcNAc(b1-3)Gal(b1-4)GlcNAc(b1-3)Gal(b1-4)GlcNAc(b1-3)Gal(b1-4)GlcNAc(b1-2)Man(a1-3)[Gal(b1-4)GlcNAc(b1-3)Gal(b1-4)GlcNAc(b1-3)Gal(b1-4)GlcNAc(b1-3)Gal(b1-4)GlcNAc(b1-3)Gal(b1-4)GlcNAc(b1-2)Man(a1-6)]Man(b1-4)GlcNAc(b1-4)[Fuc(a1-6)]GlcNAc
# How it was run: as §1
# [13] = biological target: Gal(b1-4)GlcNAc(b1-3)Gal(b1-4)GlcNAc(b1-3)Gal(b1-4)GlcNAc(b1-3)Gal(b1-4)GlcNAc(b1-3)Gal(b1-4)GlcNAc(b1-2)[Gal(b1-4)GlcNAc(b1-3)Gal(b1-4)GlcNAc(b1-3)Gal(b1-4)GlcNAc(b1-3)Gal(b1-4)GlcNAc(b1-3)Gal(b1-4)GlcNAc(b1-6)]Man(a1-6)[Gal(b1-4)GlcNAc(b1-3)Gal(b1-4)GlcNAc(b1-3)Gal(b1-4)GlcNAc(b1-3)Gal(b1-4)GlcNAc(b1-3)Gal(b1-4)GlcNAc(b1-2)Man(a1-3)]Man(b1-4)GlcNAc(b1-4)[Fuc(a1-6)]GlcNAc
# How it was run: as §1
# [14] = biological target: Gal(b1-4)GlcNAc(b1-3)Gal(b1-4)GlcNAc(b1-3)Gal(b1-4)GlcNAc(b1-3)Gal(b1-4)GlcNAc(b1-3)Gal(b1-4)GlcNAc(b1-3)Gal(b1-4)GlcNAc(b1-2)Man(a1-3)[Gal(b1-4)GlcNAc(b1-3)Gal(b1-4)GlcNAc(b1-3)Gal(b1-4)GlcNAc(b1-3)Gal(b1-4)GlcNAc(b1-3)Gal(b1-4)GlcNAc(b1-3)Gal(b1-4)GlcNAc(b1-2)Man(a1-6)]Man(b1-4)GlcNAc(b1-4)GlcNAc
# How it was run: as §1
# [15] = biological target: Gal(b1-4)GlcNAc(b1-3)Gal(b1-4)GlcNAc(b1-3)GalNAc
# How it was run: as §1
# [16] = biological target: Gal(b1-4)GlcNAc(b1-3)Gal(b1-4)GlcNAc(b1-3)[Gal(b1-4)GlcNAc(b1-3)Gal(b1-4)GlcNAc(b1-6)]GalNAc
# How it was run: as §1
# [17] = biological target: Gal(b1-4)GlcNAc(b1-3)Gal(b1-4)GlcNAc(b1-6)[Gal(b1-3)]GalNAc
# How it was run: as §1
# [18] = biological target: Gal(b1-4)GlcNAc(b1-3)Gal(b1-4)[Fuc(a1-3)]GlcNAc(b1-3)Gal(b1-4)[Fuc(a1-3)]GlcNAc
# How it was run: as §1
# [19] = biological target: Gal(b1-4)GlcNAc(b1-3)GalNAc
# How it was run: as §1
# [20] = biological target: Gal(b1-4)GlcNAc(b1-3)[Fuc(a1-3)GlcNAc(b1-6)]Gal(b1-4)Glc
# How it was run: as §1
# [21] = biological target: Gal(b1-4)GlcNAc(b1-3)[Gal(b1-4)GlcNAc(b1-6)]Gal(b1-4)GlcNAc
# How it was run: as §1
# [22] = biological target: Gal(b1-4)GlcNAc(b1-3)[GlcNAc(b1-6)]Gal(b1-4)GlcNAc
# How it was run: as §1
# [23] = biological target: Gal(b1-4)GlcNAc(b1-6)Gal(b1-4)GlcNAc
# How it was run: as §1
# [24] = biological target: Gal(b1-4)GlcNAc(b1-6)GalNAc
# How it was run: as §1
# [25] = biological target: Gal(b1-4)GlcNAc(b1-6)[Gal(b1-3)]GalNAc
# How it was run: as §1
# [26] = biological target: Gal(b1-4)GlcNAc(b1-6)[Gal(b1-4)GlcNAc(b1-3)]GalNAc
# How it was run: as §1
# [27] = biological target: Gal(b1-4)GlcNAc6P
# How it was run: as §1
# [28] = biological target: Gal(b1-6)Gal
# How it was run: as §1
# [29] = biological target: Gal3S(b1-3)GalNAc
# How it was run: as §1
# [30] = biological target: Gal3S(b1-3)GlcNAc
# How it was run: as §1
# [31] = biological target: Gal3S(b1-3)[Fuc(a1-4)]GlcNAc
# How it was run: as §1
# [32] = biological target: Gal3S(b1-4)Glc
# How it was run: as §1
# [33] = biological target: Gal3S(b1-4)Glc6S
# How it was run: as §1
# [34] = biological target: Gal3S(b1-4)GlcNAc
# How it was run: as §1
# [35] = biological target: Gal3S(b1-4)[Fuc(a1-3)]Glc6S
# How it was run: as §1
# [36] = biological target: Gal3S(b1-4)[Fuc(a1-3)]GlcNAc
# How it was run: as §1
# [37] = biological target: Gal3S(b1-4)[Fuc(a1-3)]GlcNAc6S
# How it was run: as §1
# [38] = biological target: Gal3S4S(b1-4)GlcNAc
# How it was run: as §1
# [39] = biological target: Gal3S6S(b1-4)GlcNAc
# How it was run: as §1
# [40] = biological target: Gal3S6S(b1-4)GlcNAc6S
# How it was run: as §1
# [41] = biological target: Gal4S(b1-4)GlcNAc
# How it was run: as §1
# [42] = biological target: Gal4S6S(b1-4)GlcNAc
# How it was run: as §1
# [43] = biological target: Gal6P(b1-4)GlcNAc
# How it was run: as §1
# [44] = biological target: Gal6S(b1-3)GlcNAc
# How it was run: as §1
# [45] = biological target: Gal6S(b1-3)GlcNAc6S
# How it was run: as §1
binder,measurement,setting,value
"CrataBL (Crataeva tapia), C0HJA4 (protein) AILTGVPYYILPSTSRAGFSPDNLRKNTSQLSCPLDLITQLRFPRRIGVPVIFTPQNSSLKVVPLSHNLNIHTCSDLWFCPESKIWTVKSSLTHGGSVVTTGGTFRSLGSWFRIERHGDSYKLVHCPRGSTPCRDVGIETVGGGGRRYLAPRDRPLAVRFTRASG",glycan array binding signal (z-score),[1],-0.376
same,glycan array binding signal (z-score),[2],0.546
same,glycan array binding signal (z-score),[3],-0.047
same,glycan array binding signal (z-score),[4],-0.406
same,glycan array binding signal (z-score),[5],1.07
same,glycan array binding signal (z-score),[6],-0.307
same,glycan array binding signal (z-score),[7],0.037
same,glycan array binding signal (z-score),[8],-0.288
same,glycan array binding signal (z-score),[9],-0.237
same,glycan array binding signal (z-score),[10],-0.183
same,glycan array binding signal (z-score),[11],-0.247
same,glycan array binding signal (z-score),[12],-0.276
same,glycan array binding signal (z-score),[13],-0.04
same,glycan array binding signal (z-score),[14],-0.135
same,glycan array binding signal (z-score),[15],0.729
same,glycan array binding signal (z-score),[16],1.35
same,glycan array binding signal (z-score),[17],0.506
same,glycan array binding signal (z-score),[18],-0.446
same,glycan array binding signal (z-score),[19],-0.429
same,glycan array binding signal (z-score),[20],-0.194
same,glycan array binding signal (z-score),[21],-0.379
same,glycan array binding signal (z-score),[22],-0.512
same,glycan array binding signal (z-score),[23],-0.426
same,glycan array binding signal (z-score),[24],0.211
same,glycan array binding signal (z-score),[25],0.018
same,glycan array binding signal (z-score),[26],-0.237
same,glycan array binding signal (z-score),[27],0.876
same,glycan array binding signal (z-score),[28],-0.084
same,glycan array binding signal (z-score),[29],-0.068
same,glycan array binding signal (z-score),[30],-0.002
same,glycan array binding signal (z-score),[31],-0.072
same,glycan array binding signal (z-score),[32],-0.401
same,glycan array binding signal (z-score),[33],2.03
same,glycan array binding signal (z-score),[34],-0.021
same,glycan array binding signal (z-score),[35],0.98
same,glycan array binding signal (z-score),[36],0.244
same,glycan array binding signal (z-score),[37],5.22
same,glycan array binding signal (z-score),[38],2.38
same,glycan array binding signal (z-score),[39],3.14
same,glycan array binding signal (z-score),[40],11.7
same,glycan array binding signal (z-score),[41],-0.147
same,glycan array binding signal (z-score),[42],1.86
same,glycan array binding signal (z-score),[43],-0.477
same,glycan array binding signal (z-score),[44],1.17
same,glycan array binding signal (z-score),[45],6.61
